Reference: the supplement of paper PMC10126150
Values marked as one replicate rest on one cluster of the flow cell; about a third of the high ones do not repeat.

Test system: ATP
Assay: switch fluorescence ratio, 500 uM ATP over buffer (Cy3 cluster intensity, sum of 5 cycles each) (fold (ratio)); higher = stronger signal-on switching upon ATP binding; sequences stand for … in TCGTCGGCAGCGTCAGATGTGTATAAGAGACAGTTTTTTTTTTTTTTTTTTTTTTTTT…TC
Settings: aptamer strand: ATP DNA aptamer (quencher-CACCTGGGGGAGTATTGCGGAGGAAGG + anchor), 100 nM annealed; ATP concentration: 500 uM; one replicate
Procedure, shortened: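 Cy3-labelled switching-strand clusters on a modified Illumina MiSeq flow-cell were annealed to 100 nM quencher-labelled ATP aptamer, imaged in selection buffer, then imaged after 15 min with 500 uM ATP at 22 °C. Five buffer/ATP cycles ran, with NaOH stripping and re-annealing between them. The fluorescence ratio is summed target-cycle over summed buffer-cycle Cy3 intensity per cluster, averaged per switch-domain sequence. Clusters outside 100-1000 RFU were excluded.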
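Further: ATP exposure 15 min at 22 °C before imaging.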

Sequence	switch fluorescence ratio
GAGCCGTTAG	0.96
GTAGAGGGTC	0.968
AATTTACACG	1.1
ACAACCGCCC	2.2
ATTGCCTCT	1.04
GCCTGCGTGA	1.24
ACTATAATCT	1.07
TCTTAAGGGT	0.973
TGTTGGTTAC	1.03
GTGGGAGCAA	1.03
GTAGGAATGG	1
CAAATGTGAC	1.03
ATTCTCTGAG	0.991
ACGGAAGGTA	1.06
GCGTTTCGTC	0.958
TTCAGGATGC	1.01
TTACCAGGGA	1.16
TACTTAACAA	1.15
CTGATGGACG	1.02
CGTTGCGCAG	0.989
CAGGGGGAC	1.07
TGTTGGAGTC	1.08
TTACACAAGA	1

Sequence	switch fluorescence ratio
CGTCAGCACC	2.36
GATGACACTA	1.07
TTGGAGAGCG	0.987
ATGTTGGAGT	0.986
TCAACAAAGC	0.991
CATTGGCCAT	0.977
AGGTCATCAC	1.02
CGGAGTTCGC	1.09
CGATGGCAGG	1.07
TCTTAATCC	0.997
CCGTTTGGGG	0.962
CATGTAGCTA	1.04
ATAAGTAGGG	0.959
GGTGTAAGGA	0.943
AACTGGCCGT	1.03
CAATGGCCAA	1.01
AGGGAGTTGA	1.02
GTTGGGCAGA	0.949
AATCATAGGA	0.963
TCCTAGTTTA	0.998
TCTCCCTTTT	0.995
CTTCGAATAG	2.33
TGCGAAATTC	1.26

Sequence	switch fluorescence ratio
TCGAAACTAT	3.28
AGTTCGTCTC	1.04
TTTCCATAAT	1.01
GGGATGTAAT	0.968
CTCAGTAT	0.995
ATTCATGTG	1.01
AGTGGTAGTG	0.998
TGCCGTAGGT	1.02
CAATCTTAGG	1.02
TGGGTTCAAA	0.995
AATTGGGTT	0.959
GGCGTTTCGT	0.958
CTGTATAAGA	0.969
TTGCTTCCAG	1.05
GTTCTTTCGC	1.08
TGCCCATTCT	0.981
GGCGCGCACA	1
GAGAGGTAGG	1.02
AGCATACGGC	1.18
GGTTCCGTTT	1.02
TTACTTAATG	1.01
TTTAATTGA	0.955
GGTTTGACT	0.94

Sequence	switch fluorescence ratio
CTTGTAAACT	0.966
CAAATCTTAT	1.01
AGATCTTTAT	0.995
GGGCACATTG	1.01
CATGTCGCAC	1.18
TTAACTTTTC	1.05
TGGCCGATAC	2.2
CGTTGCTGTT	0.957
CGTCGAATGA	0.964
AGGGCCAAA	0.976
CTTAAGCGGG	0.903
TTGATACAGC	1.08
TAGCTTCCCT	1.06
AGTGAATAGG	1.05
ACCTTGCGTT	0.993
GCTGTAGCTA	1.04
GCAAAACAGG	1.03
CAAGGATTCG	1.01
AAAATGAGAA	0.991
GTAGAGGGGC	0.971
GAATTTAATT	0.994
TTCAACATCA	0.996
CATTTGCATT	1.16

Sequence	switch fluorescence ratio
CTCCTCTAAG	1.14
AGCACCAA	0.991
AAGACACACT	1.36
CGGTCCGAT	0.964
ACGCTTAATA	1.12
TTGTTTGTCG	1.1
ACAGACGTAA	1.17
TCGACTTGAT	0.987
AATATAGTTA	0.997
TTAGGCGCGA	1.01
TATGATACTA	1
ACGGCTGCAA	1.01
GGCAACCTCA	1.13
CGACCGGGTT	1.05
GTAGGATAGA	0.948
TTCTCTACAA	1.42
GAGTCGGAT	1.04
TGCCCTGGGT	1.02
TTTTGTCAGA	0.96
GTCGACACAA	1.01
GTAAGGACAC	1.07
CACAAGCGAC	1.51
ACGAGAATGT	1.01

Sequence	switch fluorescence ratio
TCCCGTTTGG	1
GTATCCATTG	0.99
GCGTGGGGCA	0.955
ACATGTGCTC	0.98
GGAGTAAGT	0.976
TACTATCATC	1.03
CGTTGGCTGC	1.03
TCTATCGGGA	0.947
AAGAACGTTT	0.977
CTGCAGTCTC	1.61
CCCCTTAGGG	1.93
AACAGGGTAC	1.01
AAGTATCAGA	1
GGTGCCAT	1.02
AGTCGCTTAG	1.01
ATCTGTCACA	1.01
ATAATTCACA	1
ATCTCAAGTT	0.995
AGGTCAGTGA	0.993
CTTTTTAATT	0.95
GTCTCTCCCA	1.11
TACGAATGTT	1.01
ATGGAACGAT	1.16

Sequence	switch fluorescence ratio
CAGTCTACCA	1.04
CGGGTAAGGT	0.988
TGATCTGGCC	0.988
TAGAGAGCGT	0.952
GCAAACCCGG	1.08
CGGGACTTG	1.02
CCCCCGTACG	1.59
AATCGTCGCG	1
TAAGGCTTGG	0.973
AAGCCACCTT	1.1
CGAACTAAGG	1.04
TTTACATCA	0.98
CGGATACCTC	1.13
TTTGCTGGGG	1.07
ATGCCTCATG	0.99
TGCCAGGTAA	1.1
AGTCGTTAAG	0.984
ATGGAAAAAC	1.05
GTACAAGGA	0.957
